Data from PubChem BioAssay AID624202 (National Center for Advancing Translational Sciences (NCATS), 2012).
The whole screen tested about 380,000 compounds, of which about 4,000 (1.1%) were called active. This list was built around the results that the source calls inconclusive (neither active nor inactive); the mix of calls is not that of the screen. Calls follow the shape of the dose curve; as a rule, active = well fitted activation curve with a large enough effect; inconclusive = small, poorly fitted or top-dose-only effect; inactive = no such curve, though single readings can be large or run the other way. Potencies beside an inconclusive call are fits to weak or partial responses and may not hold up.

experiment: qHTS Assay to Identify Small Molecule Activators of BRCA1 Expression; conditions: MCF7-BRCA1-FFLuc reporter, luminescence, 48 h; activation: at 46.1 µM (top of the series), scaled: vehicle 0%, 10 µM genistein 100% unless noted; also: nearly all actives have a fitted effect of over 80% in size
Method in brief: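 Reporter cells (MCF7, BRCA1 promoter-firefly luciferase) received library compounds across a concentration series for 48 h. End-point luminescence was measured and concentration-effect curves derived after normalization.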
Potency is read from the fitted curve at half-maximal effect; tags tell the direction and shape of the fitted curve.

SMILES	Potency	activation
N/C(CS(=O)(=O)c1ccccc1)=N\OC(=O)c1ccc(F)cc1	active: 11.2 µM	–
O=C(CN1CCCCCC1)Nc1c(Cl)cc(Cl)cc1Cl	inconclusive: 14.1 µM [activator, partial curve, poor fit]	–
Cc1ccc(C(=O)c2cc3ccccc3o2)cc1C	active: 11.2 µM	–
CSc1ccccc1NC(=S)Nc1cc(C)cc(C)c1	–	inactive: 40.5%
CCc1nc2ccc(C(=O)Nc3cc(-c4ccccc4)ccc3OC)cn2c1N(C)Cc1nccs1	–	inactive: -58.2%
Clc1ccc2nc3c4ccccc4cnn3c2c1	inconclusive: 7.94 µM [activator, partial curve, poor fit]	–
O=C(Nc1ccc2nccnc2c1)c1cnccn1	active: 11.2 µM	–
Cc1ccc(NC(=O)CN(C)C(=O)COC(=O)[C@@H](NC(=O)c2ccccc2F)C(C)C)cc1	–	inactive: -11.6%
CCC(=O)Nc1cc(-c2cc3ccccc3oc2=O)ccc1OC	inconclusive: 1.41 µM [activator, full curve, poor fit]	–
O=C(CCC1CCCC1)Nc1ccc(Br)cn1	inconclusive: 11.2 µM [activator, partial curve, poor fit]	–
COc1ccc(Cc2nc3ccc(C(=O)N4CCOCC4)cc3o2)cc1	inconclusive: 17.8 µM [activator, single point]	–
CC1c2cc3c(cc2CCN1C(=O)c1ccc(Cl)cc1)OCCCO3 (configuration not stated)	–	inactive: -14.1%
CCC(CC)c1nn2c(=O)cc(COc3ccc(NC(=O)c4cccc(C)c4)cc3)nc2s1	–	inactive: 0.409%
CC(C)(C)c1ccc(-c2nc(C#N)c(NCc3ccncc3)o2)cc1	active: 11.2 µM	–
COc1ccc(-n2nc(C(=O)NCC(=O)NCCC3=CCCCC3)c3ccccc3c2=O)cc1	–	inactive: -25.4%
Cc1cc(C(=O)NCCC2=CCCCC2)no1	active: 10 µM	–
Cc1ccc(C(=O)Nc2nc3ccc(S(C)(=O)=O)cc3s2)o1	inconclusive: 1.58 µM [activator, partial curve, poor fit]	–
COc1cc(C(c2c(C)[nH][nH]c2=O)c2c(C)[nH][nH]c2=O)ccc1OCc1ccc([N+](=O)[O-])cc1	active: 3.16 µM	–
Cc1cc(O)c(C(C)C)cc1N=Cc1ccc(N(C)C)cc1	–	inactive: -16.1%
O=C(Nc1nnc(-c2ccccc2)s1)c1ccccc1O	inconclusive: 1.26 µM [activator, full curve, poor fit]	–
CCCc1c(C(=O)NNc2ccc(C)cc2)cnn1-c1ccccc1	–	inactive: -14%
COc1cc2c(cc1OC)CN(c1ncccc1[N+](=O)[O-])CC2	inconclusive: 10 µM [activator, partial curve, poor fit]	–
Brc1ccc2oc(-c3ccn[nH]3)cc2c1	inconclusive: 2.51 µM [activator, full curve, poor fit]	–
CCC(=O)Nc1cccc(NC(=S)NC(=O)c2cc3ccccc3o2)c1	inconclusive: 2 µM [activator, full curve, poor fit]	–
O=C(COc1ccccc1)Nc1nc2c(s1)CCCC2	active: 3.16 µM	–
COC(=O)Cn1c(SCc2ccccc2)nc2ccccc21	active: 7.94 µM	–

SMILES	Potency	activation
O=C(Nc1ccc2c(c1)OCCO2)c1cccc(S(=O)(=O)N2CCOCC2)c1	active: 10 µM	–
CSc1c(C#N)c(N)nc2sc(C(=O)c3ccccc3)c(N)c12	–	inactive: 6.39%
CCc1cc2c(=O)n(CCC(C)C)c(=S)[nH]c2s1	–	inactive: -47.3%
N#C/C(=C\C=C\c1ccccc1[N+](=O)[O-])C(=O)NCc1ccccc1	–	inactive: -91.6%
COc1ccc(O)c(/C=N/N2CCCCC2)c1	active: 10 µM	–
O=C(NC1=NCCS1)c1ccc(Cl)s1	active: 5.62 µM	–
CCCCOC(=O)Nc1nnc(CC)s1	inconclusive: 17.8 µM [activator, single point]	–
CC(C)=NNC(=O)c1c(O)c2ccccc2[nH]c1=O	–	inactive: 3.58%
CN(C)c1ccc(-c2nc3cc(N)ccc3o2)cc1	–	inconclusive: -54.8% [activator]
COc1ccc(-c2csc(Cc3nc(O)cs3)n2)cc1	inconclusive: 3.55 µM [activator, full curve, poor fit]	–
COc1ccccc1N1CCN(/N=C/c2cccc(OC)c2O)CC1	inconclusive: 14.1 µM [activator, partial curve, poor fit]	–
COc1ccccc1C1=NOC(C)(c2sc(-c3ccc(Cl)cc3)nc2C)C1 (configuration not stated)	inconclusive: 25.1 µM [activator, single point]	–
COc1ccc(N2CCN(c3ncnc4c3[nH]c3ccccc34)CC2)cc1	–	inactive: -31.5%
O=c1[nH]c(Nc2ccccn2)cc2ccccc12	inconclusive: 7.08 µM [activator, partial curve, poor fit]	–
COc1ccc(C2CC(c3cccs3)=NN2C(=O)CN2CCCCC2)cc1 (configuration not stated)	–	inactive: -20.1%
CCCC(=O)Nc1cc(C)c(NC(=O)c2ccccn2)cn1	inconclusive: 35.5 µM [activator, single point]	–
CC(=C\c1ccco1)/C=C1/SC(=S)N(CC(=O)O)C1=O	inconclusive: 31.6 µM [activator, single point]	–
CC1CCN(C(=O)Cn2nnc(-c3cccs3)n2)CC1	inconclusive: 14.1 µM [activator, partial curve, poor fit]	–
CCc1ccccc1NS(=O)(=O)c1ccc2c(c1)NC(=O)CC(=O)N2	–	inactive: -16.8%
COc1nc(-c2ccccc2)ccc1-c1noc(-c2cccs2)n1	inconclusive: 2.82 µM [activator, full curve, poor fit]	–
CC1(C)CC(C(CCN(Cc2ccccc2)C(=O)c2ccco2)c2ccc(F)cc2)CCO1 (configuration not stated)	–	inactive: -101%
Cc1cccc(-n2ncc3c(N(C)Cc4ccccc4)ncnc32)c1	inconclusive: 2.51 µM [activator, full curve, poor fit]	–
Cc1ccccc1NC(=O)Nc1ccc(C(F)(F)F)cc1	inconclusive: 0.562 µM [activator, full curve, poor fit]	–
Cc1cc(NC(=O)CSc2nnc(COc3ccccc3)n2Cc2ccco2)no1	–	inactive: 14.2%
COc1ccc(-c2cc(C#N)nc(N3CCN(C)CC3)n2)cc1	–	inactive: -8.46%
C/C(=C\c1ccccc1)C(=O)NCc1ccco1	inconclusive: 17.8 µM [activator, single point]	–
